This note sets out measurements from the supplement of paper PMC9446081.

Among all 39,000 compounds or so, about 220 (0.56%) showed activity. Some of the results follow.
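Further: static incubation at 37 °C against the wild-type strain, values averaged over two biological replicates.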

This experiment has as its system Escherichia coli K-12 BW25113. The experiment is described as follows: relative growth (OD600 normalised to plate interquartile mean) (fraction); higher = less growth inhibition, active = 0.2 or less. The following applies: 50 µM; LB; incubation time: overnight (16-24 h).
In the case of `CO[C@H]1CN(C)C(=O)c2cc(NC(=O)NC3CCCCC3)ccc2OC[C@H](C)N(CCc2ccccc2)C[C@@H]1C`, the relative growth was inactive: 0.986.
As for `C[C@@H]1CN([C@@H](C)CO)S(=O)(=O)c2ccc(C#CC3(O)CCCC3)cc2O[C@H]1CN(C)C(=O)Cc1cccnc1`, the relative growth was inactive: 1.03.
The result for `C[C@@H]1CCCCO[C@@H](CN(C)Cc2ccc(C(=O)O)cc2)[C@H](C)CN([C@H](C)CO)C(=O)c2cc(NS(=O)(=O)c3ccc(F)cc3)ccc2O1` reads inactive: 1.01; that for `O=S(=O)(NCC[C@H]1CC[C@H](NS(=O)(=O)c2ccccc2Cl)[C@@H](CO)O1)c1ccc(F)cc1`, inactive: 1.03; that for `C[C@H]1CN([C@@H](C)CO)C(=O)Cc2cc(NS(=O)(=O)c3cn(C)cn3)ccc2O[C@@H]1CN(C)Cc1ccccc1`, inactive: 1.01.
As to `C[C@@H]1CN([C@@H](C)CO)C(=O)c2cc(NC(=O)c3ccncc3)ccc2O[C@@H](C)CCCCO[C@@H]1CN(C)C(=O)Nc1ccc(C(F)(F)F)cc1`, the relative growth was inactive: 0.953.
Turning to `COc1ccc(CN2C[C@@H](C)[C@H](OC)CN(C)C(=O)c3ccc(NC(=O)c4nc5ccccc5s4)cc3OC[C@H]2C)cc1`, the relative growth is inactive: 1.02.
As for `C[C@H](CO)N1C[C@H](C)[C@@H](CN(C)C(=O)Nc2ccc(C(F)(F)F)cc2)OCCCC[C@H](C)Oc2ccc(NS(C)(=O)=O)cc2C1=O`, the relative growth was inactive: 0.939.
Turning to `O=C(C[C@@H]1CC[C@H]2[C@@H](COC[C@@H](O)CN2S(=O)(=O)c2ccc(Oc3ccccc3)cc2)O1)NC1CCC1`, the relative growth was inactive: 1.
Consider `C[C@@H]1CCCCO[C@@H](CN(C)Cc2ccccc2)[C@@H](C)CN([C@H](C)CO)C(=O)c2cc(NC(=O)CCCCCC(=O)Nc3ccccc3N)ccc2O1`, for which the relative growth was inactive: 0.993.
As for `C[C@@H]1CCCCO[C@@H](CN(C)Cc2ccncc2)[C@H](C)CN([C@@H](C)CO)C(=O)c2cc(NS(C)(=O)=O)ccc2O1`, the relative growth was inactive: 1.02.
`C[C@H](N)CCP(=O)(O)O`: the relative growth was inactive: 1.01.
As to `Cc1noc(C)c1NC(=O)Nc1ccc2c(c1)C(=O)N([C@H](C)CO)C[C@H](C)[C@@H](CN(C)C(=O)NC1CCCCC1)OCCCC[C@H](C)O2`, the relative growth is inactive: 1.01.
The result for `Cc1noc(C)c1NC(=O)Nc1ccc2c(c1)CC(=O)N([C@H](C)CO)C[C@@H](C)[C@@H](CN(C)S(=O)(=O)c1cn(C)cn1)O2` reads inactive: 0.985.
For `C[C@@H]1CN([C@@H](C)CO)C(=O)Cc2cc(NC(=O)Nc3ccc(F)cc3)ccc2O[C@@H]1CN(C)Cc1ccc(Oc2ccccc2)cc1`, the relative growth was inactive: 0.981.
As to `Cc1ccc(-n2nc(C(C)(C)C)cc2NC(=O)Nc2ccc(OCCN3CCOCC3)c3ccccc23)cc1`, the relative growth was inactive: 1.
As to `COc1ccc(S(=O)(=O)Nc2ccc3c(c2)CC(=O)N([C@H](C)CO)C[C@@H](C)[C@H](CN(C)S(=O)(=O)c2cn(C)cn2)O3)cc1`, the relative growth was inactive: 1.
For the compound `Cc1ccccc1S(=O)(=O)N1C[C@@H](O)COC[C@H]2O[C@H](CC(=O)N3CCN(C)CC3)CC[C@@H]21`, the relative growth was inactive: 0.984.
Take `C[C@H](CO)N1C[C@H](C)[C@H](CN(C)C(=O)Nc2ccnc(N3CCOCC3)c2)OCc2cnnn2CCCC1=O`: the relative growth is inactive: 1.
Regarding `COc1cccnc1N`, the relative growth was inactive: 0.99.
With `C[C@@H]1CN([C@@H](C)CO)C(=O)Cc2cc(NS(=O)(=O)c3ccc(F)cc3)ccc2O[C@@H]1CN(C)CC1CC1`, the relative growth was inactive: 1.01.
With `COc1cccc(S(=O)(=O)N2C[C@@H](O)COC[C@@H]3O[C@H](CC(=O)NCCCN4CCOCC4)CC[C@H]32)c1`, the relative growth is inactive: 0.98.
Turning to `CC(C)(C)[S@@](=O)N1Cc2cc(C(=O)N[C@H]3CCN(Cc4ccccc4)C3)nc(-c3cccc(-c4cccnc4)c3)c2[C@H]1CCO`, the relative growth was inactive: 0.991.
For `COc1cccc(C#Cc2ccc3c(c2)O[C@@H](CN(C)S(=O)(=O)c2ccccc2F)[C@@H](C)CN([C@H](C)CO)S3(=O)=O)c1`, the relative growth was inactive: 1.04.
The result for `C[C@H](C(=O)N(C)C[C@@H]1OCc2ccccc2-c2c(n(C)c3ccccc23)C(=O)N([C@@H](C)CO)C[C@@H]1C)c1ccccc1` reads inactive: 0.994; that for `O=S1(=O)CC[C@H](N[C@H]2CCS(=O)(=O)C2)C1`, inactive: 0.984.
In the case of `C[C@@H]1CN([C@@H](C)CO)C(=O)c2cccc(NS(=O)(=O)c3ccccc3)c2O[C@H]1CN(C)S(=O)(=O)c1cccs1`, the relative growth is inactive: 0.991.
The result for `O=C(NCC(F)(F)F)[C@@H]1[C@@H](CO)[C@@H]2Cn3c(cccc3=O)[C@@H]2N1C(=O)C1CCC1` reads inactive: 1; that for `COc1ccc(-c2cnc3c(c2)C(=O)N([C@@H](C)CO)C[C@@H](C)[C@H](CN(C)C(=O)Cc2cccnc2)O3)cc1`, inactive: 1.02.
On to `Cc1ccc(S(=O)(=O)N(C)C[C@H]2Oc3ccc(NC(=O)Cn4cnnn4)cc3CC(=O)N([C@@H](C)CO)C[C@@H]2C)cc1`, for which the relative growth is inactive: 1.01.
Turning to `CCS(=O)(=O)Nc1ccc2c(c1)C(=O)N(C)C[C@@H](OC)[C@@H](C)CN(Cc1ccccn1)[C@@H](C)CO2`, the relative growth is inactive: 1.01.
`CN(C)C(=O)C[C@H]1C=C[C@H](NC(=O)C2CCOCC2)[C@H](CO)O1`: the relative growth was inactive: 1.01.
With `COc1ccc2[nH]c3c(-c4cccc5ccccc45)nccc3c2c1`, the relative growth was inactive: 1.
The result for `Cc1noc(C)c1S(=O)(=O)Nc1ccc2c(c1)CC(=O)N([C@H](C)CO)C[C@H](C)[C@@H](CN(C)Cc1ccc3c(c1)OCO3)O2` reads inactive: 0.991; that for `O=C(NCCCN1CCOCC1)[C@@H]1[C@@H](CO)[C@@H]2Cn3c(cccc3=O)[C@H]1N2C(=O)C1CCCCC1`, inactive: 1.01.
For `C[C@H]1CCCCO[C@H](CN(C)S(=O)(=O)c2ccc(Cl)cc2)[C@@H](C)CN([C@@H](C)CO)C(=O)c2cc(NC(=O)Cc3ccccc3)ccc2O1`, the relative growth was inactive: 1.03.
For the compound `COc1ccc(S(=O)(=O)Nc2ccc3c(c2)CC(=O)N([C@@H](C)CO)C[C@@H](C)[C@@H](CN(C)S(=O)(=O)c2cccs2)O3)cc1`, the relative growth was inactive: 1.03.
As to `NNC(=O)c1ccc(CN2CCCCC2)o1`, the relative growth is inactive: 1.01.
With `Cc1cc(C)c(S(N)(=O)=O)cc1S(N)(=O)=O` the figure was inactive: 1.01; with `CO[C@H]1CN(C)C(=O)c2cc(NC(=O)NC(C)C)ccc2OC[C@@H](C)N(Cc2ccc(-c3ccccn3)cc2)C[C@H]1C`, inactive: 1.02; with `Cc1ccc(S(=O)(=O)Nc2ccc3c(c2)C(=O)N([C@H](C)CO)C[C@H](C)[C@@H](CN(C)C(=O)Nc2ccc(C(F)(F)F)cc2)O3)cc1`, inactive: 0.995.
Consider `CCC(=O)N[C@H]1CC[C@H](CC(=O)OC)O[C@@H]1CO`, for which the relative growth was inactive: 1.02.
On to `C#CCN1CCS(=O)(=O)CC1`, for which the relative growth is inactive: 0.986.
On to `C[C@@H]1CN([C@@H](C)CO)C(=O)c2cc(NC(=O)C3CCCCC3)ccc2O[C@@H](C)CCCCO[C@@H]1CN(C)C(=O)Nc1cccc2ccccc12`, for which the relative growth is inactive: 1.01.
The result for `CN1C(=O)C[C@H](C(=O)O)[C@H]1c1cccnc1` reads inactive: 0.882.
As to `C[C@@H]1CCCCO[C@H](CN(C)C(=O)CCC(F)(F)F)[C@H](C)CN([C@H](C)CO)C(=O)c2cc(NC(=O)C3CCCCC3)ccc2O1`, the relative growth is inactive: 1.02.
With `Cc1noc(C)c1NC(=O)N(C)C[C@@H]1Oc2ccc(NC(=O)Nc3cccc4ccccc34)cc2CC(=O)N([C@H](C)CO)C[C@@H]1C` the figure was inactive: 0.996; with `O=C1OC(CN2CCOCC2)CN1N=Cc1ccc([N+](=O)[O-])o1` (stereo unspecified), inactive: 0.575.
As for `C[C@@H]1CCCCO[C@H](CN(C)S(=O)(=O)c2ccc(F)cc2)[C@H](C)CN([C@@H](C)CO)C(=O)c2cc(NC(=O)Nc3ccc(C(F)(F)F)cc3)ccc2O1`, the relative growth is inactive: 1.02.
Regarding `C[C@H]1CN([C@@H](C)CO)C(=O)CCCn2cc(nn2)CO[C@H]1CN(C)Cc1cccc2c1OCCCO2`, the relative growth is inactive: 1.
As for `C[C@@H]1CCCCO[C@H](CN(C)Cc2ccccc2)[C@H](C)CN([C@H](C)CO)C(=O)c2cc(NS(=O)(=O)c3ccccc3)ccc2O1`, the relative growth was inactive: 0.964.
The result for `C[C@@H]1CN([C@@H](C)CO)C(=O)c2c(c3ccccc3n2C)-c2ccccc2CO[C@H]1CN(C)C(=O)Nc1ccc(-c2ccccc2)cc1` reads inactive: 1.02; that for `Cc1noc(C)c1S(=O)(=O)Nc1cccc2c1O[C@@H](CN(C)Cc1ccc3c(c1)OCO3)[C@@H](C)CN([C@H](C)CO)C2=O`, inactive: 1; that for `COc1ccc(NC(=O)Nc2ccc3c(c2)C(=O)N([C@H](C)CO)C[C@H](C)[C@@H](CN(C)C(=O)CCC(F)(F)F)OCCCC[C@@H](C)O3)cc1`, inactive: 0.993.
As to `FC(F)(F)c1ccc(CSc2c[nH]c3ccccc23)cc1`, the relative growth is inactive: 0.766.
As for `C[C@H](CO)N1C[C@H](C)[C@@H](CN(C)S(=O)(=O)c2cn(C)cn2)Oc2ncc(C#CCN(C)C)cc2C1=O`, the relative growth was inactive: 1.01.
The result for `Cc1noc(C)c1NC(=O)Nc1ccc2c(c1)C(=O)N([C@@H](C)CO)C[C@@H](C)[C@H](CN(C)C(=O)Nc1ccc(F)cc1)OCCCC[C@H](C)O2` reads inactive: 1.
Take `COc1ccc([Si](C)(C)[C@@H]2[C@@H](CCn3cc([C@H](O)c4ccccc4)nn3)O[C@]3(C(=O)N(Cc4ccc(N5CCOC5=O)cc4)c4ccccc43)[C@H]2C)cc1`: the relative growth is inactive: 1.02.
With `COc1ccc(CN(C)C[C@@H]2OCCCC[C@@H](C)Oc3ccc(NC(=O)Nc4c(C)noc4C)cc3C(=O)N([C@@H](C)CO)C[C@H]2C)cc1`, the relative growth is inactive: 1.
`Cc1noc(C)c1S(=O)(=O)N(C)C[C@@H]1Oc2ccc(NS(=O)(=O)c3ccccc3)cc2CC(=O)N([C@H](C)CO)C[C@H]1C`: the relative growth is inactive: 0.773.
`NC[C@H](c1ccco1)N1CCc2ccccc2C1`: the relative growth was inactive: 0.976.
